About 12,000 (3.5%) of roughly 340,000 compounds were called active. Inconclusive means that the source gave no clear call. Such entries were picked first, then a sample of the others. The call rests on the fitted dose curve; in most records, active means well fitted inhibition curve with a large enough effect; inconclusive means small, poorly fitted or top-dose-only effect, or another doubt; inactive means no such curve, though single readings can be large or run the other way. No potency is given beside an inconclusive call; the fits are too rough.
experiment: qHTS Assay for Inhibitors of Hepatitis C Virus (HCV); settings: Huh7.5.1 HCVcc-Cre (HCVcc is cell-culture hepatitis C virus) infection, luciferase reporter, 44 h; activity change, negative = inhibition: at 41.8 µM (top of the series) unless noted
Summary of the method: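 Infectious HCVcc-Cre (~0.5 moi) was added to cells just after compound, with cells seeded 4 h earlier at 1,000 per well. Luciferase activity after 44 h culture reported infection; substrate was incubated 15 min at room temperature before reading.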
On the % scale 0 is the no-effect control and ±100 the full control effect; potency means the concentration at half of the fitted maximal effect; tags describe the fitted curve by direction and shape.

SMILES | Potency | activity change, negative = inhibition
Fc1ccccc1CNCCC(Cc1ccccc1)c1ccc2c(c1)OCO2 (stereo not drawn) | inconclusive [inhibitor, single point] | 
Fc1ccccc1NC(=S)N1CCC(c2ccccc2)C1 (stereo not drawn) |  | inactive: -27.8%
CCC(C)NCCCCOc1ccc(C)cc1[N+](=O)[O-] (stereo not drawn) | inconclusive [inhibitor, single point] | 
CCn1nc(NC(C)=O)c2cc3cccc(C)c3nc21 | inconclusive [inhibitor, single point] | 
COc1ccccc1NS(=O)(=O)c1cc(NC(=O)C(C)C)ccc1N1CCCCC1 | inconclusive [inhibitor, single point] | 
C[C@H](NS(=O)(=O)c1c(Cl)cccc1Cl)C(=O)NNC(=O)COc1ccccc1F |  | inactive: -7.78%
CC(=O)c1ccc(OCCCC(=O)Nc2ccc3c(c2)OCCO3)cc1 | inconclusive [inhibitor, single point] | 
O=C(N/C=N/OCc1ccc(Cl)cc1Cl)NOCc1ncc(C(F)(F)F)cc1Cl | inconclusive [inhibitor, partial curve] | 
OC(c1ccc(F)cc1)(C1CCCCC1)C(CN1CCOCC1)c1ccccc1 (stereo not drawn) | inconclusive [inhibitor, single point] | 
NS(=O)(=O)c1ccc(N/N=C/c2ccccc2Br)cc1 |  | inactive: -10.6%
C/C(=N\NC(=O)COc1ccc(C#N)cc1)c1ccccc1OC(F)F | inconclusive [inhibitor, partial curve, poor fit] | 
Cc1ccc(/C=C2/Sc3ccccc3N(CC(=O)NCC3CCCO3)C2=O)cc1 (stereo not drawn) | inconclusive [inhibitor, partial curve] | 
O=C1COc2ccc(C(=O)CCl)cc2N1 | inconclusive [inhibitor, single point] | 
CCOC(=O)C1=C(CN2CCc3ccccc32)NC(=O)NC1c1ccc(Cl)cc1 (stereo not drawn) | inconclusive [inhibitor, single point] | 
COc1ccc(-c2oc3cccnc3c2/C=C/c2ccc(OC)c(OC)c2)cc1 | inconclusive [inhibitor, single point] | 
O=C(NCCc1ccccn1)c1ccc2nc(Cc3ccccc3F)oc2c1 |  | inactive: 1.98%
Cc1nn(C(=O)c2ccoc2C)c(N)c1-c1ccccc1 | inconclusive [inhibitor, partial curve] | 
COc1ccccc1N1CCN(Cc2ccccc2)CC1 | inconclusive [inhibitor, single point] | 
CCCCN(CCCC)C(=O)C1(P(=O)(c2ccccc2)c2ccccc2)CCC1 | inconclusive [inhibitor, single point] | 
CN1CCN(c2ccc(NC(=O)COc3ccc4ccccc4c3)cc2)CC1 | inconclusive [inhibitor, partial curve] | 
O=S(=O)(c1ccccc1)c1nnn2c1nc(NC1CCN(Cc3ccccc3)CC1)c1cc(Cl)ccc12 | inconclusive [inhibitor, full curve] | 
O=C(Cn1cnc2ccccc2c1=O)Nc1ccc(N2CCOCC2)cc1 |  | inactive: 8.82%

SMILES | Potency | activity change, negative = inhibition
CCNC(=S)N/N=C1\C(=O)c2cccc3cccc1c23 | inconclusive [inhibitor, single point] | 
CCCC(C)NC(=S)NC(=O)c1cc(S(=O)(=O)N2CCOCC2)ccc1C (stereo not drawn) | inconclusive [inhibitor, partial curve, poor fit] | 
CCN1C(=O)[C@H]2[C@H]3CN=C(SCc4ccc(C)cc4)N3[C@@](C)(C(=O)OC)[C@H]2C1=O |  | inactive: 19.2%
Cc1ccc2nc(N/N=C/c3ccccc3C#N)nc(-c3ccccc3)c2c1 | inconclusive [inhibitor, partial curve, poor fit] | 
Cc1ccc(-n2nnnc2C(=Cc2ccc(N(C)C)cc2)c2nnnn2-c2ccc(C)cc2)cc1 | inconclusive [inhibitor, single point] | 
Cc1ccc(C)c(Oc2ccc(S(=O)(=O)N3CCN(C)CC3)cn2)c1 | inconclusive [inhibitor, single point] | 
COc1ccc(C(=O)N/N=C/c2ccc(OC)c(COc3ccccc3)c2)cc1 | inconclusive [inhibitor, single point] | 
OC(COc1ccccc1)Cn1c2ccccc2c2ccccc21 (stereo not drawn) | inconclusive [inhibitor, partial curve] | 
C=CCN(c1ccc(C(=O)NCCc2ccccc2)cc1)S(C)(=O)=O |  | inactive: 1.99%
COc1ccc(N2C(=O)c3ccccc3NC2c2ccc(OC)c(CSc3ccccn3)c2)cc1 (stereo not drawn) |  | inactive: -14.5%
Cc1cc(SCn2nnc3ccccc3c2=O)nc2ccccc12 |  | inactive: -8.08%
CCOc1ccc(C=NNc2ccc(S(=O)(=O)Nc3ccccc3C(=O)O)cc2[N+](=O)[O-])cc1OC |  | inactive: 7.07%
CCN(c1ccccc1)S(=O)(=O)c1cccc(C(=O)NCC(c2ccco2)N2CCCCC2)c1 (stereo not drawn) | active: 10 µM | 
CCOc1ccc(N(CC(=O)NC(C(C)C)C(C)C)S(=O)(=O)c2ccc(OC)c(OC)c2)cc1 | active: 10 µM | 
CCOC(=O)c1ccc(NC(=O)c2ccccc2)cc1 | inconclusive [inhibitor, single point] | 
COCCCN(C(=S)NC(=O)c1ccc(Br)cc1)c1c(N)n(Cc2ccccc2)c(=O)[nH]c1=O | inconclusive [inhibitor, single point] | 
CCN(CC)CCn1c(NCc2nc3ccccc3n2Cc2ccccc2)nc2ccccc21 | inconclusive [inhibitor, single point] | 
COc1cc(/C=N/NC(N)=S)ccc1OCC(=O)Nc1ccc(C)cc1 | inconclusive [inhibitor, full curve] | 
CC(=O)c1cn(CC(=O)NCc2ccc3c(c2)OCO3)c2ccccc12 | inconclusive [inhibitor, single point] | 
COc1ccc(C(=O)Cn2cc[n+](C)c2)cc1 | active: 11.2 µM | 
CC1(C)CCC[C@]2(C)[C@H]3Cc4cc(O)ccc4O[C@]3(C)CC[C@@H]12 | inconclusive [inhibitor, partial curve] | 

Reference: PubChem BioAssay AID651820 (National Center for Advancing Translational Sciences (NCATS), 2012)
